Assay results taken from PubChem BioAssay (NCATS).
Where “and” joins values, the source holds several entries; their conditions need not be identical. Identical values can stand only once. The shares of active, inactive and inconclusive entries below differ from those in the screen. Potencies beside an inconclusive call are fits to weak or partial responses and may not hold up. Calls of active or inactive are those of the source. Calls follow the shape of the dose curve; as a rule, active = well fitted cell-killing curve with a large enough effect; inconclusive = small, poorly fitted or top-dose-only effect; inactive = no such curve, though single readings can be large or run the other way.

assay: qHTS of pediatric cancer cell lines to identify multiple opportunities for drug repurposing: Primary screen for SK-N-SH cells (AID 1347098); conditions: SK-N-SH viability, CellTiter-Glo luminescence, 48 h; series mostly up to 57 µM; activity change, negative = cytotoxic: at the top concentration; also: nearly all actives have a fitted effect of over 65% in size
Source text: Drug repurposing or repositioning has been offered as a strategy for drug development in oncology programs. This approach has special potential for childhood cancers and other rare or orphan diseases, where the expected return on new drug development has been a disincentive to pharmaceuticals.
In this project we exploit the poly-pharmacology of drugs to discover new indications via phenotypic screening of a panel of 19 well-characterized cell lines derived from solid tumors seen in children and adolescents. The goal is to identify approved drugs with previously unrecognized anticancer properties that has the potential to reveal new mechanisms and biological processes involved in carcinogenesis or drug resistance. We employed a titration-based paradigm (quantitative high-throughput screening or qHTS), where all compounds were tested at multiple concentrations for their effect on cell viability. Concentration-response curves (CRCs) were derived directly from the primary screen, and both potency and efficacy values were used to identify compounds with robust bioactivity profiles. We screened the NIH Chemical Genomics Center (NCGC) Pharmaceutical Collection (NPC) and Mechanism Interrogation Plate (MIPE) small molecule collections of approved and investigational compounds against these cell lines; and measured metabolically active cells after 48 hours of compound treatment as a proxy for cell viability.
Assay Submitter: Nathalia J. Martinez, National Center for Advancing Translational Sciences, National Institutes of Health, Rockville, MD, USA; email: natalia.martinez@nih.gov
[1] Shen, M et al. Quantitative high-throughput phenotypic screening of pediatric cancer cell lines identifies multiple opportunities for drug repurposing. Oncotarget 2017 Dec 19;9(4):4758-4772. PMID 29435139.
The cells were obtained from University of North Carolina (UNC), Pediatric Preclinical Testing Program (PPT), and Coriell Institute (CI).
qHTS cell viability assay:
Cells were assayed in growth media at a density of 500-1,000 cells/well. Five microliters of cells were dispensed into 1,536-well, white, solid-bottom, TC-treated plates (Greiner Bio One) using a multidrop dispenser and incubated at 37 degrees C, 5% CO2, under a humidified atmosphere for 5 hours. Twenty-three nanoliters of compounds and controls (neutral control DMSO or positive control bortezomib at final concentration of 2.3 µM) were subsequently transferred by Kalypsys pintool. For primary screens, the MIPE collection was tested at 11-point dilutions (final concentrations range from 0.78 nM to 46 µM) and the NPC collection at 8-point dilutions (final concentrations range from 0.59 nM to 46 µM). Compounds tested in follow-up screens were assayed at 11-point dilutions. Cells were incubated for 48 hours, followed by addition of 3 µL of CellTiter-Glo (Promega). After a 15 min incubation at room temperature, samples were analyzed for luminescence intensity using a ViewLux High-throughput CCD imager equipped with clear filters.
% is scaled to controls: 0 for no effect and ±100 for the full control effect; potency is read from the fitted curve at half-maximal effect; tags tell the direction and shape of the fitted curve.

| Compound | Potency | activity change, negative = cytotoxic |
| --- | --- | --- |
| Nc1ccc(-c2ccc3ncc4ccc(=O)n(-c5cccc(C(F)(F)F)c5)c4c3c2)cn1 | inconclusive: 0.341 µM [cytotoxic, full curve, poor fit] |  |
| Oc1c(Br)cc(Br)c2cccnc12 | inconclusive: 34.4 µM [cytotoxic, single point] |  |
| CC(=O)Oc1ccccc1C(=O)O | inactive |  |
| CCN(CC)c1ccc(C(=C2C=CC(=[N+](CC)CC)C=C2)c2cc(S(=O)(=O)O)ccc2S(=O)(=O)[O-])cc1 | active: 3.86 µM |  |
| COc1ccc(O)cc1 |  | inactive: -15% |
| O=C(CCCN1CCC(O)(c2ccc(Cl)cc2)CC1)c1ccc(F)cc1 | inconclusive: 42.9 µM [cytotoxic, single point] and inconclusive: 13.7 µM [cytotoxic, partial curve] |  |
| COCCOC(=O)C1=C(C)NC(C)=C(C(=O)OC/C=C/c2ccccc2)C1c1cccc([N+](=O)[O-])c1 (stereo not given) | inconclusive: 21.7 µM [cytotoxic, single point] |  |
| CCOc1ccc(Cc2cc([C@@H]3O[C@H](CO)[C@@H](O)[C@H](O)[C@@H]3O)ccc2Cl)cc1 | inconclusive: 30.4 µM [cytotoxic, single point] |  |
| O=c1cc(-c2ccccc2)oc2ccccc12 | inconclusive: 25 µM [cytotoxic, partial curve] |  |
| C[C@@H]1CCN(C(=O)CC#N)C[C@H]1N(C)c1ncnc2[nH]ccc12 | inconclusive: 19.2 µM [cytotoxic, partial curve] |  |
| COc1ccnc(CS(=O)c2nc3ccc(OC(F)F)cc3[nH]2)c1OC (stereo not given) | inconclusive: 24.1 µM [cytotoxic, partial curve] |  |
| CN(C(Cc1ccc(OS(=O)(=O)c2cccc3cnccc23)cc1)C(=O)N1CCN(c2ccccc2)CC1)S(=O)(=O)c1cccc2cnccc12 (stereo not given) | inconclusive: 27.1 µM [cytotoxic, single point] |  |
| C#CC(C)(CC)OC(=O)c1ccccc1C(=O)O (stereo not given) |  | inactive: 2.35% |
| CN(C)c1ccc(C(=C2C=CC(=[N+](C)C)C=C2)c2ccccc2)cc1 | active: 1.09 µM |  |
| COc1cc(C(=S)N2CCOCC2)ccc1O | inconclusive: 43.3 µM [cytotoxic, single point] |  |
| CCCC(=O)O[C@]1(C(=O)CCl)[C@@H](C)C[C@H]2[C@@H]3CCC4=CC(=O)C=C[C@]4(C)[C@@]3(F)C(=O)C[C@@]21C |  | inactive: 15.2% |
| Cc1[nH]c(C=C2C(=O)Nc3ccc(S(=O)(=O)Cc4c(Cl)cccc4Cl)cc32)c(C)c1C(=O)N1CCC[C@H]1CN1CCCC1 | inconclusive: 27.1 µM [cytotoxic, partial curve, poor fit] |  |
| CS(=O)(=O)c1ccc(-c2cn3ccccc3n2)cc1 | inconclusive: 24.4 µM [cytotoxic, partial curve, poor fit] |  |
| Cc1ccccc1C(C(=O)NC1CCCCC1)N(C(=O)Cn1ccnc1C)c1cccc(F)c1 (stereo not given) |  | inactive: 5% |
| Cc1cnc(Nc2ccc(OCCN3CCCC3)cc2)nc1Nc1cccc(S(=O)(=O)NC(C)(C)C)c1 | inconclusive: 42.9 µM [cytotoxic, single point] |  |

| Compound | Potency | activity change, negative = cytotoxic |
| --- | --- | --- |
| CC(C)C(=O)Nc1ccc([N+](=O)[O-])c(C(F)(F)F)c1 | inconclusive: 86.4 nM [cytotoxic, full curve, poor fit] and active: 12.1 µM |  |
| CC[C@]1(O)C[C@@H]2CN(CCc3c([nH]c4ccccc34)[C@@](C(=O)OC)(c3cc4c(cc3OC)N(C=O)[C@@H]3C45CCN4CC=C[C@](CC)([C@H]45)[C@@H](OC(C)=O)[C@]3(O)C(=O)OC)C2)C1 (stereo not given in full) | inconclusive: 42.9 µM [cytotoxic, single point] |  |
| O=C(NCc1ccccc1)c1csc(Nc2ccncn2)n1 | inconclusive: 24.1 µM [cytotoxic, partial curve] |  |
| CCCCc1ccc2nc(NC(=O)OC)[nH]c2c1 | inconclusive: 6.8 nM [cytotoxic, full curve, poor fit] and inconclusive: 61.2 nM [cytotoxic, full curve] |  |
| CN1CCN(C2=Nc3cc(Cl)ccc3Nc3ccccc32)CC1 | inconclusive: 21.5 µM [cytotoxic, partial curve, poor fit] and active: 15.4 µM |  |
| O=C1C(Cl)=C(NCCN2CCOCC2)C(=O)c2ncccc21 | active: 7.64 µM |  |
| Cc1ccnc(NS(=O)(=O)c2ccc(NC(=O)Nc3ccc(S(=O)(=O)Nc4nccc(C)n4)cc3)cc2)n1 | inconclusive: 19.2 µM [cytotoxic, partial curve] |  |
| CC(=O)Oc1cc2c(s1)CCN(C(C(=O)C1CC1)c1ccccc1F)C2 (stereo not given) | inconclusive: 27.1 µM [cytotoxic, partial curve] |  |
| [O-][n+]1ccccc1SSc1cccc[n+]1[O-] | active: 0.067 µM |  |
| COc1ccc(-c2cc(=O)c3c(O)cc(O)cc3o2)cc1O | active: 24.1 µM |  |
| C=CC(=O)Nc1cccc(Sc2nc(Nc3ccc(N4CCN(C)CC4)cc3)ncc2Cl)c1 | active: 27.1 µM |  |
| Oc1ccc2ccccc2c1SSc1c(O)ccc2ccccc12 | active: 19.2 µM |  |
| Oc1ccc(C2CCN(c3ccnc4ccccc34)CC2)cc1O | inconclusive: 21.5 µM [cytotoxic, partial curve] |  |
| CC(=NNC(=S)N1CCC1)c1ccccn1 | inconclusive: 0.681 µM [cytotoxic, partial curve, poor fit] |  |
| C=C(c1ccc(C(=O)O)cc1)c1cc2c(cc1C)C(C)(C)CCC2(C)C | inactive |  |
| Clc1ccccc1-c1nc(-c2ccncc2)no1 | inconclusive: 0.0307 µM [cytotoxic, partial curve, poor fit] |  |
| C=CC(=O)Nc1cc2c(Nc3ccc(F)c(Cl)c3)ncnc2cc1C#CC(C)(C)N1CCN(C)CC1 | active: 3.83 µM |  |
| COC(=O)c1nc(Cl)c(Cl)nc1N | active: 3.44 µM |  |
| C[C@@H](O[C@H]1OCCN(Cc2n[nH]c(=O)[nH]2)[C@@H]1c1ccc(F)cc1)c1cc(C(F)(F)F)cc(C(F)(F)F)c1 | inconclusive: 42.9 µM [cytotoxic, single point] |  |
| CC(O)=C(C#N)C(=O)Nc1ccc(C(F)(F)F)cc1 | inconclusive: 24.1 µM [cytotoxic, partial curve] |  |
